Data on 43 compounds can be found in ChEMBL document CHEMBL4888484, “Replenishing the malaria drug discovery pipeline: Screening and hit evaluation of the MMV Hit Generation Library 1 (HGL1) against asexual blood stage Plasmodium falciparum ,using a nano luciferase reporter read-out” (2022).

This assay deals with Plasmodium falciparum. Kind of assay: Primary screen in NF54 nanoGlo assay, in single point, at 2uM, 72h; a lower Z score goes with more inhibition. The format is functional, Erythrocyte. The following applies: timepoint 72 hour.

For orientation: % Inhibition means the change of the read-out against control, counted positive when it falls.

The structures appear in SMILES notation. About 540 (0.36%) of roughly 150,000 compounds showed an effect of 50% or more. This is one part of the list.

Take `COC1CS(=O)(=O)CC1NC(=O)Nc1cn(CC(C)C)nc1C(F)F` (stereo unspecified): the “% Inhibition” value was -12% and the Z score is given as 1.71.

Turning to `COc1ccc([C@H](CNCc2c(C)nn(C)c2C)N2CCCCC2)cc1`, the “% Inhibition” value turned out to be 2% and the Z score is on record as -0.21.

`CC1(C)CC[C@H](CNC(=O)c2ncccc2Cl)O1`: the “% Inhibition” value is recorded as -16% and the Z score came out at 1.96.

With `CC(C)(C)n1cc(CNc2ccc(Cl)c(F)c2)nn1`, the “% Inhibition” value stood at 2% and the Z score is -0.18.

Take `Cc1cccc(C)c1C(=O)NC(C)C(C)CO` (stereo unspecified): the “% Inhibition” value is recorded as -14% and the Z score came to 1.18.

Regarding `Cc1c(C(=O)NC2CCN(C)CC2)sc2nc(-c3ccccc3)c(NC3CCCC3)n12`, the “% Inhibition” value is -8% and the Z score is 1.28.

As to `O=C(CCc1nc2cccnc2[nH]1)NCCN1CCOCC1`, where the note is “2 µM”, the “% Inhibition” value came to 1% and the Z score is given as -1.34.

Regarding `CCCCNc1ccccc1C(=O)N[C@H]1CC[C@H](O)CC1`, the “% Inhibition” value is reported as 1% and the Z score is listed as -0.09.

Regarding `CN(CCCN1CCCC1)C(=O)Nc1cc(F)ccc1OC(F)F`, the “% Inhibition” value was -2% and the Z score is 0.24.

Consider `COc1ccc(NC(=O)C2C3NC(=O)N(c4ccccc4)C2(C)Oc2ccccc23)cc1` (stereo unspecified), for which the “% Inhibition” value amounted to 29% and the Z score was -3.26.

For the compound `COCCn1ccc(NC(=O)NCc2cccnc2)n1`, the “% Inhibition” value was determined as 7% and the Z score is on record as -1.37.

Regarding `Cn1nc(NC(=O)c2ccccc2)c2c1CCN(C(=O)C1CCC1)C2`, the “% Inhibition” value is -10% and the Z score is listed as 0.86.

On to `Cc1ccc(-c2nc(C)c([C@H](C)NC(=O)NC3CCOCC3)s2)cc1`, for which the “% Inhibition” value is reported as -12% and the Z score is given as 1.72.

Turning to `Cc1cc(N2CCC(N[C@H]3CCCOc4c(Cl)cccc43)CC2)[nH]n1`, the “% Inhibition” value is -10% and the Z score is given as 1.47.

Take `CCN(C)c1nc(N2CCN(c3ccc(C)cc3)CC2)nc2c1CN(C(=O)OCc1ccccc1)CC2`: the “% Inhibition” value is on record as -8% and the Z score is 0.96.

Turning to `C/C(=C\c1ccccc1)CN1CCCn2nc(CNC(=O)C3CCC3)cc2C1`, the “% Inhibition” value came out at 7% and the Z score is given as -1.18.

For `O=C1[C@@H]2Cc3c([nH]c4ccccc34)CN2C(=O)CN1C1CCCCC1`, the “% Inhibition” value came out at 6% and the Z score is -1.1.

On to `O=C(c1ccccn1)N1C[C@H]2CC[C@@H](C1)N(C(=O)c1n[nH]c3ccccc13)C2`, for which the “% Inhibition” value is -7% and the Z score came to 1.18.

As for `CO[C@@H](C)CS(=O)(=O)Nc1ccc(C#N)c(C#N)c1C`, the “% Inhibition” value is recorded as 5% and the Z score is -0.99.

Take `Cn1cccc1C(=O)Cn1cnc(C#N)n1`: the “% Inhibition” value came out at 2% and the Z score was -0.31.

As for `O=C(CCc1nc([C@@H]2CCCN2Cc2cccc3[nH]ccc23)no1)N1CCCC1`, the “% Inhibition” value was 1% and the Z score is recorded as -0.17.

Consider `CC(C)N1CCN(c2nc(C3CCCC3)nc3c2CCOCC3)CC1`, for which the “% Inhibition” value was -1% and the Z score came to 0.14.

As for `Cc1c(N2C(=O)[C@H](Cc3ccccc3)N(C)C2=O)cccc1C(F)(F)F`, the “% Inhibition” value is -7% and the Z score turned out to be 0.69.

`COc1cccc(OC)c1Cn1cnc2ccncc2c1=O`: the “% Inhibition” value was -1% and the Z score is reported as 0.12.

With `CN1C[C@@H](NS(=O)(=O)c2cccnc2)CCC1=O`, the “% Inhibition” value is 6% and the Z score is -0.82.

Take `Cc1ccc([C@H](C)NC(=O)Cn2cnc(-c3nc(C)cs3)c2)cc1`: the “% Inhibition” value came out at 6% and the Z score is -0.74.

Turning to `CC(C)c1nccc(-c2nccn2CCN2CCCC2=O)n1`, the “% Inhibition” value is -9% and the Z score was found to be 0.89.

In the case of `CC[C@H](C)N(Cc1ccc(C)cc1)Cc1ncnn1CC`, the “% Inhibition” value is given as -19% and the Z score worked out at 2.76.

For `Cc1nc(CNC(CC2CCOC2)c2ccccc2)no1` (stereo unspecified), the “% Inhibition” value was -9% and the Z score amounted to 1.3.

Take `O=C(NCC1CC1)C1CCN(C(=O)c2ncn3c2CO[C@H](c2ccccc2)C3)CC1`: the “% Inhibition” value is -16% and the Z score stood at 1.45.

With `Clc1cc(Cl)cc(/N=C2\NC3(CCCCC3)Cc3ccccc32)c1`, the “% Inhibition” value is -5% and the Z score came out at 0.62.

As for `CC(C)Oc1nc(-c2cccc(C(F)(F)F)c2)n(-c2cccc(NC(=O)c3ccc(F)cc3)c2)n1`, the “% Inhibition” value is listed as -13% and the Z score was determined as 1.48.

Regarding `Cc1noc(C)c1C(=O)NC1CCN(Cc2ccccc2)CC1`, the “% Inhibition” value is reported as 1% and the Z score is recorded as -0.26.

Consider `Cc1ccc(-n2nc(C(=O)NCCc3ccccn3)c(=O)n(Cc3cccnc3)c2=O)cc1`, for which the “% Inhibition” value is given as -15% and the Z score is reported as 2.1.

On to `CCCCc1nc(N)c(-c2ccc(OC)cc2)c(C#N)c1CCC`, for which the “% Inhibition” value is on record as 12% and the Z score is -2.19.

Turning to `COc1ccc(CN2CCN3C(=O)N(C4CCOCC4)C[C@H]3C2)cn1`, the “% Inhibition” value was -4% and the Z score amounted to 0.73.

Consider `COc1ccc(NC(=O)N(C)CCc2noc(C3CCCCC3)n2)cc1OC`, for which the “% Inhibition” value was -9% and the Z score is 0.86.

With `Cc1cc(C)c2c(-n3c(C)ccc3C)nn(CC(=O)NCCc3ccccc3C)c2n1`, the “% Inhibition” value is recorded as -6% and the Z score amounted to 0.59.

On to `COc1cccc(N2CCN(C(=O)c3ccc(-c4nc(-c5ccc(F)cc5)no4)cc3)CC2)c1`, for which the “% Inhibition” value is given as -4% and the Z score is reported as 0.69.

As to `CNCC1CCCOC1c1ccccc1` (stereo unspecified), the “% Inhibition” value was -12% and the Z score is 1.45.

In the case of `Cc1ocnc1C(=O)N1C[C@@H](C)N(C(=O)c2ncoc2C)[C@@H](C)C1`, the “% Inhibition” value was -8% and the Z score is recorded as 0.82.

For `CC(C)c1cc(C(=O)N2CCC[C@H](C)C2)nc2ccnn12`, the “% Inhibition” value is on record as 8% and the Z score was -1.25.

Take `CCn1cc(CNC(=O)N2CCC(O)(Cc3ccccc3OC)CC2)cn1`: the “% Inhibition” value amounted to 1% and the Z score is -0.13.
